Hit rate of the full screen: of about 420,000 compounds, about 50,000 (12%) were called active. The shares of active, inactive and inconclusive entries below differ from those in the screen. Calls follow the shape of the dose curve; as a rule, active = well fitted inhibition curve with a large enough effect; inconclusive = small, poorly fitted or top-dose-only effect; inactive = flat fitted curve, though single readings scatter. Potencies of inconclusive entries are left out as doubtful fits.
Experiment: qHTS for Inhibitors of human tyrosyl-DNA phosphodiesterase 1 (TDP1): qHTS in cells in presence of CPT; also: nearly all actives have a fitted effect of over 55% in size
Conditions: chicken DT40 Tdp1-/-;hTDP1 cells + 20 nM CPT, ATP luminescence, 48 h; activity change, negative = growth inhibition: at 46.2 µM (top of the series) unless noted
Outline: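 Chicken DT40 Tdp1-/- cells complemented with human TDP1, 400 cells/well, exposed to compounds plus 20 nM camptothecin for at least 48 h at 37 C; viability read as ATP content by CellTiter-Glo luminescence.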
% is scaled to controls: 0 for no effect and ±100 for the full control effect; potency is read from the fitted curve at half-maximal effect; tags tell the direction and shape of the fitted curve.

**Q.** Which Potency does the source give for `COc1ccc(NS(=O)(=O)c2cccc(C(=O)OCC(=O)N3CCN(c4ccc(OC)cc4)CC3)c2)cc1` here?
**A.** active: 13 µM

**Q.** With `COc1ccc(C(N)=O)cc1NC(=O)c1cccc(F)c1` as the compound, how does the Potency read?
**A.** inactive

**Q.** With `Cc1cnc(NC(=O)CSc2nc3ccccc3c(=O)[nH]2)s1` as the compound, how does the Potency read?
**A.** inconclusive [inhibitor, single point]

**Q.** With `CCCSc1nc(O)c(C(c2ccc(OC)c(O)c2)c2c(O)nc(SCCC)n(C)c2=O)c(=O)n1C` as the compound, how does the Potency read?
**A.** inactive

**Q.** For `COc1ccccc1-c1cc(NC=O)c2ncc(-c3ccc(F)cc3)n2c1`, which Potency is on record?
**A.** active: 13 µM

**Q.** Which Potency does the source give for `CCOC(=O)C1(C)CCCCCN1C(=O)c1ccc(N(C)C)cc1` (stereo not drawn) here?
**A.** inconclusive [inhibitor, single point]

**Q.** For `Cc1cc(OCCCC(=O)NCCc2nnc3ccccn23)ccc1Cl`, which Potency is on record?
**A.** inconclusive [inhibitor, single point]

**Q.** Which Potency does the source give for `Cc1ccc(C)c(NC(=S)NC(NC(=O)Cc2cccc3ccccc23)C(Cl)(Cl)Cl)c1` (stereo not drawn) here?
**A.** active: 8.2 µM

**Q.** Which Potency does the source give for `COc1ccc2[nH]cc(CCNc3ccnc(-c4cccnc4)n3)c2c1` here?
**A.** active: 20.6 µM

**Q.** Which Potency does the source give for `Oc1[nH]c2c(Cl)cc(Cl)cc2c1N=NC(=S)NCC1CCCO1` (stereo not drawn) here?
**A.** active: 3.66 µM

**Q.** With `COc1ccc(C#Cc2cccc(-c3nc(C(=O)NCc4ccc(Oc5ccccc5)cc4)cc4c3[C@@H](CCO)N(S(=O)C(C)(C)C)C4)c2)cc1OC` (stereo partly drawn) as the compound, how does the Potency read?
**A.** inconclusive [inhibitor, single point]

**Q.** Which Potency does the source give for `Cn1cnnc1SCC(=O)c1ccco1` here?
**A.** inactive

**Q.** With `Cc1ccc(-n2nc3c(=O)n(CC(=O)NCCc4ccccc4C)nc(C)c3c2C)cc1` as the compound, how does the Potency read?
**A.** inconclusive [inhibitor, single point]

**Q.** For `CC(=O)c1c(C)[nH]c(C(=O)Nc2cccc(S(=O)(=O)N(C)C)c2)c1C`, which activity change, negative = growth inhibition is on record?
**A.** inconclusive: -32.7% [inhibitor]

**Q.** Which Potency does the source give for `Cc1ccc(-c2nn(-c3ccccc3)cc2/C=C/C(=O)OCC(=O)NC2CC2)o1` here?
**A.** active: 20.6 µM

**Q.** For `O=C(NNC(=O)c1ccc(F)c(S(=O)(=O)N2CCOCC2)c1)c1ccc([N+](=O)[O-])cc1`, which activity change, negative = growth inhibition is on record?
**A.** inconclusive: -37.3% [inhibitor]

**Q.** With `CCC(=O)N1CCc2cc(-c3csc(NC(=O)c4ccco4)n3)ccc21` as the compound, how does the Potency read?
**A.** inconclusive [inhibitor, single point]

**Q.** Which Potency does the source give for `COc1ccc2cc(C#N)c(N3CCN(Cc4nnnn4CCC(C)C)CC3)nc2c1` here?
**A.** active: 20.6 µM

**Q.** Which Potency does the source give for `CCOc1ccc(NC(=O)CN(C)C(=O)c2cn(-c3ccc(C)cc3)nc2-c2cccc(OC)c2)cc1OCC` here?
**A.** inconclusive [inhibitor, single point]

**Q.** With `CC1Nc2ncnc(N3CCc4ccccc4C3)c2N(Cc2ccc(Br)cc2)C1=O` (stereo not drawn) as the compound, how does the Potency read?
**A.** active: 16.4 µM

**Q.** Which Potency does the source give for `CC(C)C[C@@H]1Cc2[nH]c(=S)[nH]c(=O)c2[C@H](C)O1` here?
**A.** inactive

**Q.** With `CN(C)C(=O)c1cc(C(=O)c2ccccc2F)c[nH]1` as the compound, how does the Potency read?
**A.** inactive

**Q.** With `CC(C)(C)C1CCN2CCC[C@](c3ccccc3)(C1)[C@@]21CO1` (stereo partly drawn) as the compound, how does the Potency read?
**A.** inconclusive [inhibitor, single point]

**Q.** Which Potency does the source give for `COc1ccc(/C=C/C(=O)N2CCCc3ccccc32)c(OC)c1` here?
**A.** inconclusive [inhibitor, single point]

**Q.** For `COc1cccc(C#Cc2cnc3c(c2)C(=O)N([C@@H](C)CO)C[C@H](C)[C@H](CN(C)C(=O)C2CCC2)O3)c1`, which Potency is on record?
**A.** inconclusive [inhibitor, single point]

**Q.** Which Potency does the source give for `O=c1cnc2cnc(Oc3cccc(Cl)c3)nc2n1CCc1ccccc1` here?
**A.** inconclusive [inhibitor, single point]

**Q.** Which Potency does the source give for `COCCn1c(C(C)C)nc2sc3ccccc3c(=O)c2c1=O` here?
**A.** inactive

**Q.** Which Potency does the source give for `O=[N+]([O-])c1ccc(Sc2nccn2Cc2ccccc2)c([N+](=O)[O-])c1` here?
**A.** active: 6.51 µM

**Q.** For `COc1ccc(OC)c(/C(O)=C/C(=O)C(=O)Nc2cc(C)cc(C)c2)c1`, which Potency is on record?
**A.** inconclusive [inhibitor, single point]

**Q.** Which Potency does the source give for `COc1ccc(NC(=O)c2c(C(F)(F)F)nn(C)c2Cl)cc1` here?
**A.** inactive

**Q.** Which Potency does the source give for `Cc1oc2ccc(NS(=O)(=O)c3ccc(C(C)(C)C)cc3)cc2c1C(=O)Nc1ccccc1` here?
**A.** inconclusive [inhibitor, single point]

**Q.** For `COc1ccc(NC(=O)N2CC3(CCN(C(=O)c4ccco4)CC3)C2)cc1`, which Potency is on record?
**A.** inactive

**Q.** Which Potency does the source give for `COc1ccc(NC(=O)CC2Oc3ccccc3NC2=O)c(OC)c1` (stereo not drawn) here?
**A.** inactive

**Q.** Which Potency does the source give for `O=C(O)CCCN1C(=O)/C(=C\c2ccco2)SC1=S` here?
**A.** inactive

**Q.** With `CCc1ccc(OCC(=O)c2c(O)c3ccccc3oc2=O)cc1` as the compound, how does the Potency read?
**A.** inconclusive [inhibitor, partial curve, poor fit]

**Q.** Which Potency does the source give for `O=C(Nc1ccc(N2CCN(C(=O)C3CC3)CC2)cc1)c1cccs1` here?
**A.** inactive

**Q.** Which Potency does the source give for `CCOC(=O)N1CCC(N2C(=O)c3ccccc3C2Nc2ccc3c(c2)OCCO3)CC1` (stereo not drawn) here?
**A.** inconclusive [inhibitor, partial curve]

**Q.** With `CSCCC(c1nnnn1-c1c(C)cccc1C)N1CCN(C/C=C/c2ccccc2)CC1` (stereo not drawn) as the compound, how does the Potency read?
**A.** inconclusive [inhibitor, single point]

**Q.** With `COc1ccc2c(c1)CCCC21NC(=O)N(CC(=O)NC(=O)NCc2ccccc2)C1=O` (stereo not drawn) as the compound, how does the Potency read?
**A.** inactive

**Q.** For `COc1cc(SC)ccc1C(=O)N1CCc2ccccc21`, which Potency is on record?
**A.** active: 20.6 µM

**Q.** For `O=C(CCn1c(=O)oc2ccccc21)NCCCN1CCN(c2ccc(F)cc2)CC1`, which Potency is on record?
**A.** inactive

**Q.** Which Potency does the source give for `COc1ccc(NC(=O)CSCC(=O)Nc2ccc(S(=O)(=O)N3CCCC3)cc2)cc1` here?
**A.** inactive

**Q.** With `O=C(COC(=O)CCCc1c[nH]c2ccccc12)Nc1ccc2c(c1)OCO2` as the compound, how does the Potency read?
**A.** inactive

**Q.** Which Potency does the source give for `COC(=O)[C@]12CCCCC=C1N(Cc1ccco1)C(=O)[C@H](CC(=O)N1CCCCC1)C2` here?
**A.** inactive

**Q.** With `COc1ccc(N(CC(=O)NCCC2=CCCCC2)S(=O)(=O)c2ccccc2F)cc1` as the compound, how does the Potency read?
**A.** inconclusive [inhibitor, single point]

**Q.** Which Potency does the source give for `FC(F)(F)c1ccc2c3n(nc2c1)CCN=C3c1ccc(Cl)cc1` here?
**A.** inactive

**Q.** For `COc1ccc(NS(=O)(=O)c2ccc3oc(SC(C)C(N)=O)nc3c2)cc1` (stereo not drawn), which Potency is on record?
**A.** active: 16.4 µM

**Q.** With `O=C(CCC1CCN(C(=O)c2cc(C(F)(F)F)ccc2Cl)CC1)NC1CC1` as the compound, how does the Potency read?
**A.** inactive

From PubChem BioAssay AID686979 (National Center for Advancing Translational Sciences (NCATS), 2013)
